{"source": "PubChem BioAssay AID463173", "about": "(ICCB-Longwood Screening Facility, Harvard Medical School, 2010)", "note": "Among all 52,000 compounds or so, about 1,700 (3.3%) were called active. Cut-off read from the data, not from the text of the source: active = survival mostly below about 52% (no sharp cut-off); inactive = mostly above about 56%. This is one part of the list."}
{"tested_on": "Wild type", "experiment": "growth inhibition of S. aureus wild type versus tarO mutant, primary screen, teichoic acid synthesis inhibitors, RN4220, OD600 (AID 463173)", "conditions": "S. aureus RN4220 wild type/DeltatarO growth, OD600, 18 h, stronger effect = lower value, screened at 18.75 µg/mL (by protocol)"}
{"smiles": "Cc1ccc(S(=O)(=O)N2CCCc3cc(NS(=O)(=O)c4ccc(C)c(C)c4)ccc32)cc1", "survival": "inactive: 60%"}
{"smiles": "CC(=O)c1ccc(NC(=O)CSc2c(C(C)C)cnc3c2c(=O)n(C)c(=O)n3C)cc1", "survival": "inactive: 94%"}
{"smiles": "COC(=O)c1ccn(-c2nc(-c3ccc(Cl)cc3)cc(C(F)(F)F)n2)n1", "survival": "active: 9%"}
{"smiles": "Cc1c(-c2nnc(SCC(=O)Nc3ccc(Br)cc3)o2)nnn1-c1ccc(F)cc1", "survival": "inactive: 80%"}
{"smiles": "COc1ccc(C2(N3CCN(c4cccc(C)c4C)CC3)C(=O)c3ccccc3C2=O)cc1", "survival": "inactive: 91%"}
{"smiles": "O=C(Cn1c(=O)n(Cc2ccc(C(=O)NCc3ccc4c(c3)OCO4)cc2)c(=O)c2ccccc21)Nc1ccc(F)cc1F", "survival": "inactive: 111%"}
{"smiles": "CCOc1ccc(CNCCSc2nnnn2C)cc1OC", "survival": "inactive: 72%"}
{"smiles": "O=C(CS(=O)(=O)c1cccc2nsnc12)N1CCN(c2ccccc2)CC1", "survival": "inactive: 119%"}
{"smiles": "CCc1ccc2[nH]c(=O)c(C(c3nnnn3C(C)(C)C)N3CCc4ccccc43)cc2c1", "note": "(stereo not given)", "survival": "inactive: 109%"}
{"smiles": "COc1ccc(-c2nc(C)c(CCNS(=O)(=O)c3ccc(F)cc3)s2)cc1OC", "survival": "inactive: 80%"}
{"smiles": "CCCCNC(=O)C1CCN(c2nc3ccc(C)cc3[nH]2)CC1", "survival": "inactive: 63%"}
{"smiles": "CC(C)c1ccc(CN(Cc2ccco2)c2cnc(S(C)(=O)=O)nc2C(=O)Nc2ccccc2)cc1", "survival": "inactive: 81%"}
{"smiles": "COC(=O)c1ccccc1NC(=O)c1cn2c3c(ccc(Cl)c3c1=O)OC(C)C2", "note": "(stereo not given)", "survival": "inactive: 72%"}
{"smiles": "COc1cccc(C2C(C(=O)Nc3cccnc3)=C(C)Nc3nc(SCc4ccccc4)nn32)c1", "note": "(stereo not given)", "survival": "inactive: 103%"}
{"smiles": "Cc1nc2ccc(S(=O)(=O)CCC(=O)Nc3ccccc3C)cc2s1", "survival": "inactive: 94%"}
{"smiles": "CCOC(=O)c1ccc(NC(=O)C2CCCN(c3ncnc4onc(C)c34)C2)cc1", "note": "(stereo not given)", "survival": "inactive: 60%"}
{"smiles": "Cc1ccc(NC(=O)Cn2c(=O)oc3cc(S(=O)(=O)N4CCCC4)ccc32)cc1F", "survival": "inactive: 134%"}
{"smiles": "CC1(C)Cc2nc3sc4c(N5CCOCC5)ncnc4c3cc2CO1", "survival": "inactive: 97%"}
{"smiles": "COc1ccc(NC(=O)CSC2=Nc3ccccc3C3=NC(CCC(=O)NCc4ccco4)C(=O)N23)cc1", "note": "(stereo not given)", "survival": "inactive: 60%"}
{"smiles": "O=C(CC1NCCNC1=O)Nc1cccc(F)c1", "note": "(stereo not given)", "survival": "inactive: 73%"}
{"smiles": "Cc1ccc2ncc3c(-c4ccccc4)nn(CC(=O)NC4CCCCC4)c3c2c1", "survival": "inactive: 82%"}
{"smiles": "COc1ccccc1N1CCN(CCCNC(=O)Cn2ncc3c([nH]c4ccccc43)c2=O)CC1", "survival": "inactive: 47%"}
{"smiles": "CCc1ccc(CNc2nc3nc(C)c(Cc4ccccc4)c(=O)n3[nH]2)cc1", "survival": "inactive: 93%"}
{"smiles": "CCc1ccc(-c2nc(SCC(=O)NCCOC)c(-c3ccc(C)cc3)[nH]2)cc1", "survival": "inactive: 88%"}
{"smiles": "CCc1ccc(CN2CCc3nc(Nc4ccc5c(c4)OCCO5)ncc3C2)cc1", "survival": "inactive: 89%"}
{"smiles": "COc1ccccc1CNC(=O)C(=O)NCC(c1ccc2c(c1)OCO2)N1CCOCC1", "note": "(stereo not given)", "survival": "inactive: 74%"}
{"smiles": "COc1ccc(CCNc2oc(COc3ccc(Cl)cc3)nc2C#N)cc1OC", "survival": "inactive: 95%"}
{"smiles": "CCc1ccc2nc(N3CCN(C(=O)c4ccco4)CC3)sc2c1", "survival": "inactive: 68%"}
{"smiles": "CC(Sc1ccccc1)C(=O)N/N=C/c1cccnc1", "note": "(stereo not given)", "survival": "inactive: 107%"}
{"smiles": "COc1cccc(NC(=O)CSc2nncn2N)c1", "survival": "inactive: 111%"}
{"smiles": "CC(=O)c1cccc(NC(=O)C2=CC(c3ccco3)=NS(=O)(=O)N2C)c1", "survival": "inactive: 87%"}
{"smiles": "COc1ccc(Nc2nnc(-c3ccc(C)c(S(N)(=O)=O)c3)c3ccccc23)cc1", "survival": "inactive: 77%"}
{"smiles": "CSc1nn(Cc2cccc(F)c2)c(N(C(C)=O)C(C)=O)c1S(=O)(=O)c1ccccc1", "survival": "inactive: 67%"}
{"smiles": "O=C(CN1CCCCC1)N1CCCc2ccccc21", "survival": "inactive: 116%"}
{"smiles": "CCc1cccc(C)c1NC(=O)c1cnn(-c2ccc(F)cc2)c1-n1cccc1", "survival": "inactive: 22%"}
{"smiles": "CCOc1ccc(S(=O)(=O)Nc2ccc(-c3ccc(N4CCCC4)nn3)cc2)cc1", "survival": "inactive: 72%"}
{"smiles": "Cc1cccc(S(=O)(=O)c2cn(Cc3ccccc3)c3cc(N4CCCC(C)C4)c(F)cc3c2=O)c1", "note": "(stereo not given)", "survival": "inactive: 87%"}
{"smiles": "Cc1cccc2sc(N3CCN(C(=O)c4ccco4)CC3)nc12", "survival": "inactive: 72%"}
{"smiles": "Cc1cc(NC(=O)C2CCCN(S(=O)(=O)c3cccc4nonc34)C2)ccc1Br", "note": "(stereo not given)", "survival": "inactive: 92%"}
{"smiles": "Clc1ccc(CSc2nc(NCCc3ccccc3)c3ccccc3n2)cc1", "survival": "inactive: 71%"}
{"smiles": "CCC(=O)N1CCc2cc(S(=O)(=O)NC(CC(C)C)C(=O)Nc3ccc(CC)cc3)ccc21", "note": "(stereo not given)", "survival": "inactive: 84%"}
{"smiles": "O=C(CN1N=C(c2ccc(Cl)cc2)CCC1=O)NCc1ccc(F)cc1", "survival": "inactive: 64%"}
{"smiles": "COc1ccc(OC)c(CNCc2c(C(=O)O)n(Cc3ccccc3)c3cc(OC)ccc23)c1", "survival": "inactive: 84%"}
{"smiles": "Cc1ccc(-c2cc(C(F)(F)F)n3nc(C(=O)Nc4ccc(C#N)cc4)cc3n2)cc1", "survival": "inactive: 71%"}
{"smiles": "CCOc1ccccc1CNC(=O)CCCN1C(=O)CCn2nc(-c3cccn3C)cc21", "survival": "inactive: 72%"}
{"smiles": "CCc1ccc(-n2nc(C)c3c(C)cc(=O)n(CC(=O)Nc4ccc(OC)c(OC)c4)c32)cc1", "survival": "inactive: 77%"}
{"smiles": "Cc1ccc(CNC(=O)C2CCN(S(=O)(=O)c3ccc4c(c3)oc(=O)n4C)CC2)cc1", "survival": "inactive: 93%"}
{"smiles": "CCOC(=O)c1c(C)[nH]c(C)c1S(=O)(=O)N1CCCC(C(=O)N2CCN(c3cc(C)ccc3C)CC2)C1", "note": "(stereo not given)", "survival": "inactive: 72%"}
{"smiles": "COc1ccc(Cl)cc1N(C)C(=O)Cn1cnc2sc(C)c(S(=O)(=O)N3CCN(c4ncccn4)CC3)c2c1=O", "survival": "inactive: 76%"}
{"smiles": "CCC(CC)C(=O)Nc1ccccc1C(=O)OCc1cc(=O)n2nc(C3CCCCC3)sc2n1", "survival": "inactive: 90%"}
{"smiles": "CCOc1ccc(CNC(=O)Cn2ncc3c(=O)oc4ccc(C)cc4c32)cc1", "survival": "inactive: 87%"}
{"smiles": "Cc1ccc(C)c(CN2C(=O)c3ccccc3S(=O)(=O)c3ccc(C(=O)N4CCOCC4)cc32)c1", "survival": "inactive: 121%"}
{"smiles": "CC(C)NC(=O)CSc1nnc(Cc2ccccc2)n1Cc1ccco1", "survival": "inactive: 97%"}
{"smiles": "COc1ccc(C(=O)N2CCCCC2CCN2CCCCC2)cc1", "note": "(stereo not given)", "survival": "inactive: 88%"}
{"smiles": "COc1ccc(Cl)cc1NC(=O)[C@H]1O[C@@H]2OC(C)(C)O[C@@H]2[C@H]2OC(C)(C)O[C@H]21", "survival": "inactive: 83%"}
